This is an account of results in patent publication US11559536B2, “Compositions and methods for the treatment of inflammation in urological pathology” (Duke University, priority 2019, dated 2023).

Molecules are shown by their SMILES. Read-outs that look alike come from different tables or passages of the source.

What all share (format): in vivo, rat
The test system of assay [1] is CP-induced cystitis. The assay is described as follows: Evans blue dye extravasation in the bladder, CP-induced cystitis.
Assay [2] has as its system CP-induced cystitis. Kind of assay: Bladder weight in CP-induced cystitis. The settings on record: 24 h after CP 150 mg/kg i.p.; GLY 2.5 mg/kg p.o.; Mesna 40 mg/kg. As for the experimental part:
(§1) Not all treatments groups were used for all end points. Basically, animals were injected i.p. with a single dose of CP (150 mg/kg) or PBS as a control and 24 hr later end point analysis began. However, depending on the experiment, rats were also pretreated/treated with various inhibitors to assess the role of various pathways. To assess a role for NLRP3, rats were given the NLRP3 inhibitor glyburide (Lamkanfi et al. (2009) The Journal of cell biology 187: 61-70) (GLY; 2.5 mg/kg in 10% ethanol in PBS, ≈800 μl/rat, p.o., (Hughes et al. (2014) American journal of physiology Renal physiology 306: F299-308) or vehicle as the control. GLY was given in the evening prior to CP administration (5 PM) and again 16 h later (9 AM). Four h later (1 PM), CP or PBS alone was injected (i.p). Additional doses of GLY were given 4 h (5 PM) and 20 h (9 AM) after CP injection. 24 h after CP injection animals were sacrificed or entered into the Evans blue protocol or behavior assays.
Bladder weights were recorded at the time of euthanasia.

Assay [3] has as its system CP-induced cystitis.
For assay [4], the system named is CP-induced cystitis. Kind of assay: Histology and IbA1/AIF1 quantitation of activated microglia in fascia dentata, CP-induced cystitis. The settings on record: for density of activated microglia (IbA1/AIF1) in the fascia dentata: CP-treated rats with or without GLY or Mesna; for cells with morphology of activated microglia in the hippocampus (H&E): fascia dentata, CP-treated rats with or without GLY. As for the experimental part:
as §1
Whole brains were immersed in 10% neutral buffered formalin (RT, 48 h), sliced coronally and embedded in paraffin blocks with the cut hippocampal plane on the block face. Sections (10 μm) were then cut and stained with hematoxylin and eosin using routine methods. Sections were visualized using Olympus Vanox BH-2 microscope and analyzed by a board-certified pathologist (WTH) for evidence of inflammation and changes in microglia.
Coronal sections (10 μm) of the hippocampus were stained with anti-IbA1/AIF1 (1:500) (catalog NBP2-19019; Novus Biologicals, Centennial, Colo.) using standard methods and citrate antigen retrieval. HRP development was accomplished with the Vectastain ABC Staining Kit (Vector Laboratories, Burlingame, Calif.) using a secondary antibody provided. All sections were imaged on a Zeiss Axio Imager 2 microscope (Zeiss, Oberkochen, Germany) running Zen software (Zeiss), using the tiling and stitching feature to ensure the entire fascia dentata was visualized. Images were imported into NIS-Elements software (Nikon Co., Tokyo, Japan). One hemisphere was chosen and 600,000-700,000 μm^2 of the fascia dentata was demarcated as the region of interest (ROI). The number of microglia within this region was then counted. Microglia cells were defined as black/brown spots with two or greater associated tendrils and the number present in the ROI was counted. Microglial density was then calculated.

In assay [5] the test system is CP-induced cystitis. Kind of assay: Forced swim assay, CP-induced cystitis. The settings on record: 48 h after CP; fluoxetine 5 mg/kg. As for the experimental part: Not all treatments groups were used for all end points. Basically, animals were injected i.p. with a single dose of CP (150 mg/kg) or PBS as a control and 24 hr later end point analysis began. However, depending on the experiment, rats were also pretreated/treated with various inhibitors to assess the role of various pathways.
Rats were left in this cylinder for a 10 min training period. 24 h later (48 h after CP), rats were then placed back in the cylinder and recorded for 5 min (Logitech Webcam; Silicon Valley, Calif.). The recordings were quantified for time spent immobile by several blinded individuals and the average score used in each individual measurement. Immobility was defined as absence of movement except for those necessary for keeping the nose above water.

[6] abbreviates: 24 h after CP 150 mg/kg i.p., GLY 2.5 mg/kg p.o., Mesna 40 mg/kg.
[7] abbreviates: started 24 h after CP, fluoxetine 5 mg/kg.

Regarding `COc1ccc(Cl)cc1C(=O)NCCc1ccc(S(=O)(=O)NC(=O)NC2CCCCC2)cc1` [GLY, glyburide], in the assay on CP-induced cystitis [1] (setting [6]), the “bladder inflammation (Evans blue extravasation)” value (“bladder inflammation” below) is “reduced”. For the same molecule, the bladder weight result with CP-induced cystitis [2] is listed as “reduced”. Moreover, the “sucrose preference (percentage of sucrose-laden water consumed)” value with CP-induced cystitis [3] (setting [7]) was “prevented”. Also, in the assay with CP-induced cystitis [4], the “density of activated microglia (IbA1/AIF1) in the fascia dentata” value (from here on “density … (IbA1/AIF1) in the fascia dentata”) was “blocked to levels not significantly different from controls” and the “cells with morphology of activated microglia in the hippocampus (H&E)” value was “not present”. In the assay with CP-induced cystitis [5], the “time spent immobile in forced swim assay” value is “prevented”.
For the molecule `O=S(=O)([O-])CCS.[Na+]` [Mesna, 2-mercaptoethane sulfonate sodium], the “bladder inflammation” value in the assay on CP-induced cystitis [1] (setting [6]) is listed as “blocked the changes in both endpoints to levels not significantly different from vehicle-treated controls”. For the same molecule, in the assay with CP-induced cystitis [2], the bladder weight entry is on record as “blocked the changes in both endpoints to levels not significantly different from vehicle-treated controls”. In the assay on CP-induced cystitis [3] (setting [7]), the “sucrose preference (percentage of sucrose-laden water consumed)” value is on record as “prevented”. Further, in the assay on CP-induced cystitis [4], the “density … (IbA1/AIF1) in the fascia dentata” value was “blocked to levels not significantly different from controls”. Moreover, the “time spent immobile in forced swim assay” value in the assay on CP-induced cystitis [5] is “prevented”.
With `O=P1(N(CCCl)CCCl)NCCCO1` (stereo not shown) [CP, cyclophosphamide], the “bladder inflammation” value with CP-induced cystitis [1] (rat, in vivo) is “significant increase in inflammation”. In the assay on CP-induced cystitis [2], the bladder weight result is on record as “significantly increased”. The “sucrose preference (percentage of sucrose-laden water consumed)” value with CP-induced cystitis [3] (rat, in vivo) is listed as “significantly lower percentage of sucrose-laden water”. For the same molecule, in the assay on CP-induced cystitis [4], the “density … (IbA1/AIF1) in the fascia dentata” value is recorded as “significantly increased density of microglia” and the “cells with morphology of activated microglia in the hippocampus (H&E)” value is recorded as “present”. Besides, the “time spent immobile in forced swim assay” value in the assay with CP-induced cystitis [5] is “significantly more time immobile”.
Consider `CNCCC(Oc1ccc(C(F)(F)F)cc1)c1ccccc1` (stereo not shown) [fluoxetine], for which the “sucrose preference (percentage of sucrose-laden water consumed)” value in the assay on CP-induced cystitis [3] (setting [7]) is given as “prevented”. In addition, the “time spent immobile in forced swim assay” value in the assay with CP-induced cystitis [5] is reported as “prevented”.
